pEC50, pIC50: −log10 of the molar value.
What was measured:
[1] = target: T1, Peroxisome proliferator-activated receptor alpha (Homo sapiens, UniProt Q07869)
T1 sequence (Q07869 whole entry): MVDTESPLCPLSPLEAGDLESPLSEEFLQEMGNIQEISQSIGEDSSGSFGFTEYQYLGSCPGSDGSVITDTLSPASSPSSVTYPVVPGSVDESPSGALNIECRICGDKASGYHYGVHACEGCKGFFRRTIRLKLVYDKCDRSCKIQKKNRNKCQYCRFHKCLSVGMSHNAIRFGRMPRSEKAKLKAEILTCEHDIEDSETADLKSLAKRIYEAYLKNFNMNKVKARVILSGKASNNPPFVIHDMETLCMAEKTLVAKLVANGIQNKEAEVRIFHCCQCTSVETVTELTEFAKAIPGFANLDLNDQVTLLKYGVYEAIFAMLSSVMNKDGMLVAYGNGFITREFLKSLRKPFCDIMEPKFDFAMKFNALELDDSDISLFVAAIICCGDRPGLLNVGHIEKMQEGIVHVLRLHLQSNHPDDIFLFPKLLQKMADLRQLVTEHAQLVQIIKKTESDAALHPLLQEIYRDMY

[2] = target: T1, Peroxisome proliferator-activated receptor alpha; remark: listed apart in the source
[3] = target: T2, Peroxisome proliferator-activated receptor delta (Homo sapiens, UniProt Q03181)
T2 sequence (Q03181 whole entry): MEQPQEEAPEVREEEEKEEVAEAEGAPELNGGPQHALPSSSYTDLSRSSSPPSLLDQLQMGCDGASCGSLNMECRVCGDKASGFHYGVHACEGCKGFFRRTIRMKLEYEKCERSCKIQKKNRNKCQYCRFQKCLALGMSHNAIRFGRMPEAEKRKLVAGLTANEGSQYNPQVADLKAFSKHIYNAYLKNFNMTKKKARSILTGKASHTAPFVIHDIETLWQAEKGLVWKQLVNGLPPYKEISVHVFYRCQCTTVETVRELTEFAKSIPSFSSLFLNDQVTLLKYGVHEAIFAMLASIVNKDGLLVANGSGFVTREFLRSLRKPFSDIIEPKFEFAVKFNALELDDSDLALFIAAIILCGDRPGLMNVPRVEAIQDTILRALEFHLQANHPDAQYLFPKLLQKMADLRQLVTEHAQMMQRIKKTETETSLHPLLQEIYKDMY

[4] = target: T2, Peroxisome proliferator-activated receptor delta; remark: listed apart in the source
[5] = target: T3, Peroxisome proliferator-activated receptor gamma (Homo sapiens, UniProt P37231)
T3 sequence (P37231 whole entry): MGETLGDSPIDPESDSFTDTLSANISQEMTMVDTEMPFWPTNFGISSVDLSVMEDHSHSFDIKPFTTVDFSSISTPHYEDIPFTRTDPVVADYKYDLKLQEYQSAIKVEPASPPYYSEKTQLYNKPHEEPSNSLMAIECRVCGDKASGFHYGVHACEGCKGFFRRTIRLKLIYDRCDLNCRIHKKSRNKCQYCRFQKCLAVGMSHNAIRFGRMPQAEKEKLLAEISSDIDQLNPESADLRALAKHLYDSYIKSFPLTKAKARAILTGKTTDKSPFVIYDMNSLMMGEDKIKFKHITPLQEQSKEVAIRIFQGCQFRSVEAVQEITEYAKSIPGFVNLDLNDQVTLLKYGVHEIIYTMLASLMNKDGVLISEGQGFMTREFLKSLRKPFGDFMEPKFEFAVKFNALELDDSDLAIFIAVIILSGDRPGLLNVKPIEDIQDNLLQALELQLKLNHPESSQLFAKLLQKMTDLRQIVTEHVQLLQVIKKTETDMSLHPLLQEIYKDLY

[6] = target: T3, Peroxisome proliferator-activated receptor gamma; remark: listed apart in the source
Rattus norvegicus = species on record: Rattus norvegicus; assay: animal or person; assay type: functional; conditions: ZDF, po, 168 h

Row | Compound | pEC50 [1] | pIC50 [2] | pIC50 [3] | pEC50 [4] | other results
1 | Cc1cc(Oc2ccc(F)c(CNC(=O)c3ccc(C(F)(F)F)cc3F)c2)ccc1OC(C)(C)C(=O)O | 5.98 | 6.42 | – | – | –
2 | Cc1cc(Oc2cccc(CNC(=O)c3ccc(C(F)(F)F)cc3C(F)(F)F)c2)ccc1OC(C)(C)C(=O)O | – | 4.99 | 7.40 | 5.54 | –
3 | Cc1cc(Oc2cccc(CNC(=O)c3ccc(OC(F)(F)F)cc3C)c2)ccc1OC(C)(C)C(=O)O | 6.38 | 5.31 | – | – | –
4 | COc1ccc(C(=O)NCc2cccc(Oc3ccc(OC(C)(C)C(=O)O)c(C)c3)c2)c(C)c1 | 5.82 | 5.38 | – | – | –
5 | Cc1cc(Oc2cccc(CNC(=O)c3ccc(C(F)(F)F)cc3)c2)ccc1OC(C)(C)C(=O)O | 5.90 | 5.46 | 8.22 | 7.02 | –
6 | Cc1ccc(CNC(=O)c2ccc(C(F)(F)F)cc2F)cc1Oc1ccc(OC(C)(C)C(=O)O)c(C)c1 | 6.10 | 6.73 | – | – | –
7 | Cc1cc(Oc2cccc(CNC(=O)c3ccc(C(F)(F)F)cc3C)c2)ccc1OC(C)(C)C(=O)O | 6.04 | 5.75 | 8.52 | 7.42 | –
8 | Cc1cc(Oc2cccc(CNC(=O)c3c(C)c4cc(Cl)ccc4n3C)c2)ccc1CCC(=O)O | – | – | – | – | pIC50 [5]: 7.46; pEC50 [6]: 7.36
9 | Cc1cc(Oc2cc(F)cc(CNC(=O)c3ccc(C(F)(F)F)cc3F)c2)ccc1OC(C)(C)C(=O)O | 6.12 | 6.14 | – | – | –
10 | Cc1cc(Oc2cccc(CNC(=O)c3cc4cc(Cl)ccc4[nH]3)c2)ccc1CCC(=O)O | 5.61 | 5.00 | 8.52 | 7.33 | –
11 | CN(CCOc1ccc(CC2SC(=O)NC2=O)cc1)c1ccccn1 (centres undefined) [ROSIGLITAZONE] | – | – | – | – | ED50 (Rattus norvegicus): 1 mg/kg
12 | Cc1cc(Oc2cccc(CNC(=O)c3ccc(C(F)(F)F)cc3Cl)c2)ccc1OC(C)(C)C(=O)O | 6.08 | 5.91 | 8.52 | 7.23 | –
13 | Cc1cc(Oc2cccc(CNC(=O)c3ccc(C(F)(F)F)cc3C)c2)ccc1CCC(=O)O | – | – | – | – | pIC50 [5]: 6.90; pEC50 [6]: 6.46
14 | Cc1ccc(C(=O)NCc2cccc(Oc3ccc(OC(C)(C)C(=O)O)c(C)c3)c2)c(C)c1 | 5.98 | 5.76 | – | – | –
15 | Cc1ccc(Oc2ccc(OC(C)(C)C(=O)O)c(C)c2)cc1CNC(=O)c1ccc(C(F)(F)F)cc1F | 6.06 | 6.48 | – | – | –
16 | Cc1cc(CNC(=O)c2ccc(C(F)(F)F)cc2F)cc(Oc2ccc(OC(C)(C)C(=O)O)c(C)c2)c1 | – | – | 8.30 | 8.40 | –
17 | Cc1cc(Oc2cccc(CNC(=O)c3cc4cc(Cl)ccc4n3C)c2)ccc1CCC(=O)O | – | – | – | – | pIC50 [5]: 7.01; pEC50 [6]: 6.87
18 | COc1cc(C(F)(F)F)ccc1C(=O)NCc1cccc(Oc2ccc(OC(C)(C)C(=O)O)c(C)c2)c1 | 6.48 | 6.33 | – | – | –
